Test results published in PMC5951580, “The effect of acylation with fatty acids and other modifications on HLA class II:peptide binding and T cell stimulation for three model peptides” (PLoS ONE, 2018).

Tested on: 26 HLA class II molecules (HLA DRB1, DRB3/4/5, DP and DQ allelic variants)
Test: Competition binding of peptides to purified HLA class II molecules (inhibition of a radiolabeled peptide)
Details: binding = IC50 of 1000 nM or better; for Number of HLA class II alleles bound (of 26 tested): radiolabeled peptide competition, two-day incubation, three or more independent experiments

Substance | Number of HLA class II alleles bound (of 26 tested) | HLA class II alleles bound with an affinity of 1000 nM or better (of 26 tested) [%]
Truncated 15-mer Exendin-4 (16–30): Truncated 15-mer of exendin-4, residues 16–30, non-acylated (EEAVRLFIEWLKNGG; Exendin-4; UniProt P26349 63-77, looked up, fragment) | 7 | –
QLLDRGATALVLQVLNVPRLMTQD [Peptide 14] | 18 | 69
